86 compounds from article PMC4336329 (PLoS ONE, 2015) can be followed below.

The whole screen tested about 310,000 compounds, of which about 2,200 (0.71%) showed an effect of 50% or more. The effect is printed as a negative number. Some of the results follow.

human ether-à-go-go-related gene (hERG) potassium channel, sequence (Q12809 whole entry, looked up): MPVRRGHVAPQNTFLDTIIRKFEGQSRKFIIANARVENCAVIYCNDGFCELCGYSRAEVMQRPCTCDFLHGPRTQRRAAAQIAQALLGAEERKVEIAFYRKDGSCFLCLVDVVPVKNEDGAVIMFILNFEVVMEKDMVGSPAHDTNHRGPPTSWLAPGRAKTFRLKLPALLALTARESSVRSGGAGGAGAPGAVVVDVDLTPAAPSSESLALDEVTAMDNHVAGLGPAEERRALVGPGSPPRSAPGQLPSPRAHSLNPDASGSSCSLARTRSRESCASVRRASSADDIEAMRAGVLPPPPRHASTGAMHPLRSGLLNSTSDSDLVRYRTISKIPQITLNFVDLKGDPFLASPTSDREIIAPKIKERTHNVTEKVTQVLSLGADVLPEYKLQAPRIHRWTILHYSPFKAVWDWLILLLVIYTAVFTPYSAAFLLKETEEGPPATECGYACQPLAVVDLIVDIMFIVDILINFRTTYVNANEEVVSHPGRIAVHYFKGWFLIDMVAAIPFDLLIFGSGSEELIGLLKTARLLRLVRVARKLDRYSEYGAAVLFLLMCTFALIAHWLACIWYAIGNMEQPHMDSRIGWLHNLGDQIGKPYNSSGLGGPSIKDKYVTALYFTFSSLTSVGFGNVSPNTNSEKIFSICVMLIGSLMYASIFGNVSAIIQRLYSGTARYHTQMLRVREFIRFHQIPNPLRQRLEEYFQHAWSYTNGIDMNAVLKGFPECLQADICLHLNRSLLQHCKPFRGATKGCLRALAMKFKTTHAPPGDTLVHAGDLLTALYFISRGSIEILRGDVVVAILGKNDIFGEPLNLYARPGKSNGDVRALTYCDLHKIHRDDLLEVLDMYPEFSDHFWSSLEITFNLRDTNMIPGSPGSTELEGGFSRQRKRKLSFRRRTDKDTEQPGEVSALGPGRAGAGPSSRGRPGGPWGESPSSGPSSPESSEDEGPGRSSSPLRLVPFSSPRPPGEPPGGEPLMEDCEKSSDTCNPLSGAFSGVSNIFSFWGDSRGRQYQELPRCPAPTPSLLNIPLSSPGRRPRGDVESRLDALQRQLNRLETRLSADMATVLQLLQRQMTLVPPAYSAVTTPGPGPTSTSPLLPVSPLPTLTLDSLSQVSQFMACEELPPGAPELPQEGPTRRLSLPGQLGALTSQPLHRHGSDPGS

This experiment concerns the target human ether-à-go-go-related gene (hERG) potassium channel (human, UniProt Q12809). The experiment is described as follows: primary screen, population patch clamp on CHO cells stably expressing hERG.
Turning to `COc1ccc(N2CCN(C(=O)CCNC(=O)Cn3ccc4ccccc4c3=O)CC2)cc1`, the “hERG current change (%, negative = inhibition) at 1uM” value stood at 1.6%. With `CCN(C(=O)CN1C(=O)NC2(CCc3ccccc32)C1=O)C1CCS(=O)(=O)C1` (centres unmarked) the figure was 13%; with `COc1ccc(OCCCC(=O)NCC(C)C)cc1`, 6.87%; with `O=C(NC(Cc1ccc2c(c1)OCO2)C(=O)N1CCCC1C(=O)O)c1ccccc1` (centres unmarked), 10.7%. Consider `COc1cc(/C=N/NC(N)=S)ccc1OC(=O)c1ccc(C)cc1`, for which the “hERG current change (%, negative = inhibition) at 1uM” value is recorded as 6.94%. Next, `CC(=O)c1ccc(N2CCN(C(=O)CCCn3c(=O)[nH]c4ccsc4c3=O)CC2)cc1`: 18.7%. Next, `CC(=O)c1ccc(NC(=O)C(C)NCc2ccccc2Cl)cc1` (centres unmarked): 3.61%; `Cc1nn(-c2ccccc2)c(C)c1/C=C/C(=O)OCC(=O)Nc1ncc(C(F)(F)F)cc1Cl`: -2.95%. Next, `CCc1ccccc1NC(=O)CCS(=O)(=O)c1ccc(C)cc1`: 9.16%.

Turning to `COc1ccc(C(=O)NCCCNC(=O)c2cnccn2)cc1Br`, the “hERG current change (%, negative = inhibition) at 1uM” value came out at 10.1%. As for `Cc1ccccc1-c1nnc(SC(C)C(=O)NC2CCCC2)o1` (centres unmarked), the “hERG current change (%, negative = inhibition) at 1uM” value was -11.9%.

With `COc1ccc(N2CCN(c3ncccc3C#N)CC2)cc1`, the “hERG current change (%, negative = inhibition) at 1uM” value was 11.4%. Next, `CC(Oc1ccc(NC(=O)c2ccco2)cc1)C(=O)N1c2ccccc2CC1C` (centres unmarked): 13.3%; `NNC(=O)c1ccc(CSc2cccc3cccnc23)cc1`: 9.92%; `Cc1cccc(N2CC(C(=O)Nc3nnc(SCC(=O)Nc4cc(C)on4)s3)CC2=O)c1` (centres unmarked): 16.8%. With `O=C(NNC(=O)c1ccccc1C(=O)O)c1cc2ccccc2o1` the figure was 12.5%. With `CC(=O)OCC1CCCC2=C(C)C(=O)CCC21COC(C)=O` (centres unmarked) the figure was -9.93%.

In the case of `COc1ccc(C(=S)N2CCCCCC2)cc1`, the “hERG current change (%, negative = inhibition) at 1uM” value was 4.81%. Next, `O=C(O)C1CC(O)CN1C(=O)c1ccco1` (centres unmarked): 15.1%; `O=C(Nc1nnc(C2=COCCO2)o1)C1CCCCC1`: 3.65%. On to `O=C(NC1CCN(c2ncccn2)CC1)c1ccccc1Cl`, for which the “hERG current change (%, negative = inhibition) at 1uM” value is recorded as 15.2%. For `COc1cccc(-c2cc(C(=O)O)[nH]n2)c1`, the “hERG current change (%, negative = inhibition) at 1uM” value stood at 6.41%.

With `CCOC(=O)N1CCC(NC(=O)C2CCN(S(=O)(=O)N3CCCC3)CC2)CC1`, the “hERG current change (%, negative = inhibition) at 1uM” value is on record as 6.83%. With `N#Cc1ccc(OCc2noc(-c3ccsc3)n2)cc1` the figure was 15%. Next, `COc1ccc(N/C=C/C(=O)c2sc(-c3ccccc3)nc2C)cc1`: 17.2%.

`CCCNC(=O)Cc1cc(=O)[nH]c(=O)[nH]1`: the “hERG current change (%, negative = inhibition) at 1uM” value stood at 16.9%. Take `CCCCCCn1c(CN2CCN(CCO)CC2)nc2c1c(=O)n(C)c(=O)n2C`: the “hERG current change (%, negative = inhibition) at 1uM” value is -4.05%. Next, `O=C(CN1CCN(C(c2ccccc2)c2ccccc2)CC1)Nc1ccc(N2CCOCC2)cc1`: 10.9%. Next, `Cc1ccnc(NC(=O)CCc2c(C)nc3ncnn3c2C)c1`: 1.74%.

Regarding `Cc1ccc(S(=O)(=O)NCc2ccc(C(=O)N3CCN(Cc4ccccc4)CC3)cc2)cc1`, the “hERG current change (%, negative = inhibition) at 1uM” value is on record as 3.2%. `C=CCN1C(=O)C(CC(=O)Nc2ccc(OCCC)cc2)N(CCCN2CCN(Cc3ccccc3)CC2)C1=S` (centres unmarked): the “hERG current change (%, negative = inhibition) at 1uM” value is -3.08%. With `Cc1ccccc1-n1c(=O)/c(=C\c2ccco2)s/c1=C(/C#N)C(=O)Nc1ccccc1` the figure was 3.73%. On to `CC(C)(C)C(=O)N1CCC(O)(CS(=O)(=O)Cc2ccccc2)CC1`, for which the “hERG current change (%, negative = inhibition) at 1uM” value stood at 3.89%. As to `COC(=O)C1CCN(C(c2ccc(OC)c(OC)c2)c2sc3nc(C)nn3c2O)CC1` (centres unmarked), the “hERG current change (%, negative = inhibition) at 1uM” value was found to be 1.78%. In the case of `Cc1cccc(NC(=O)/C(=C\c2cccs2)NC(=O)c2ccccc2)c1`, the “hERG current change (%, negative = inhibition) at 1uM” value is on record as -65.1%. Consider `COc1ccc(-c2nnc(SCC(=O)Nc3ncc(C)s3)n2-c2ccccc2)cc1OC`, for which the “hERG current change (%, negative = inhibition) at 1uM” value is on record as 9.39%. Next, `O=C(O)Cc1ccc2oc(-c3cccnc3)nc2c1`: 13.8%. Next, `COCCN(Cc1cc2cc(C)c(C)cc2nc1Cl)C(=O)N1CCOCC1`: 4.03%. In the case of `C=CCNC(=O)COC(=O)c1cc(S(=O)(=O)N2CCOCC2)ccc1N1CCCCC1`, the “hERG current change (%, negative = inhibition) at 1uM” value is recorded as -8.92%.

Turning to `CC1CCCN(S(=O)(=O)c2ccc(NC(=O)CCN3C(=O)c4ccccc4C3=O)cc2)C1` (centres unmarked), the “hERG current change (%, negative = inhibition) at 1uM” value turned out to be 5%. Next, `Cc1oc2cc3oc(=O)c4c(c3cc2c1C)CCC4`: -11.3%; `Fc1ccc(F)c(NC2=NCCCCC2)c1`: 18.8%.

As for `O=C(Nc1ccccc1Cl)NC1(C(=O)N2CCC(O)CC2)CCCCC1`, the “hERG current change (%, negative = inhibition) at 1uM” value was 21.1%. Regarding `Cc1cc(C)n2nc(C(=O)Nc3cccc(S(=O)(=O)N4CCCC4)c3)nc2n1`, the “hERG current change (%, negative = inhibition) at 1uM” value came to 3.86%.

As to `CCCCCC(O)(CCN1CCCCC1)c1ccc(OCC)cc1.Cl` (centres unmarked), the “hERG current change (%, negative = inhibition) at 1uM” value is reported as -82%. Next, `CC(/C=C(\NC(=O)c1ccccc1)C(=O)N=Nc1c(O)[nH]c2ccc(C)cc12)=C\c1ccccc1`: -1.93%; `Cc1ccc(Nc2nc(C(=O)N3CCC(C(=O)NCc4ccccc4)CC3)cs2)cc1`: 6.41%; `CC(C)n1cc(CN2CCC(Oc3ccc(C(=O)N4CCCCC4)cc3)CC2)cn1`: -18.9%. Regarding `Cc1cccc2cc(/C=N/NC(=O)c3ccccc3O)c(Cl)nc12`, the “hERG current change (%, negative = inhibition) at 1uM” value is reported as 8.13%. Next, `Cc1ccc2occ(/C=N/NC(=O)c3ccccc3Br)c(=O)c2c1`: 15.3%. Next, `COc1ccc(C(=O)NNC(=O)C23CC4CC(CC(C4)C2)C3)c(OC)c1`: 10.9%; `O=[N+]([O-])c1cc([N+](=O)[O-])c(Oc2ccc(Cl)c3cccnc23)cc1NN1CCCCC1`: 9.13%.

As to `CCC(=O)Nc1ccc(C(=O)CSc2nnc(-c3ccccc3F)n2C2CC2)cc1`, the “hERG current change (%, negative = inhibition) at 1uM” value stood at 8.56%.

Regarding `CSc1nc(=S)n(-c2ccc([N+](=O)[O-])cc2)c(C)c1C(C)=O`, the “hERG current change (%, negative = inhibition) at 1uM” value is recorded as -10.5%.

Turning to `COc1ccc(C(=O)NCC(=O)OCCCOC(=O)CNC(=O)c2ccc(OC)c(OC)c2)cc1OC`, the “hERG current change (%, negative = inhibition) at 1uM” value is 5.65%. On to `O=C(Nc1ccc(-n2cnnn2)cc1)c1cccc(S(=O)(=O)N2CCCC2)c1`, for which the “hERG current change (%, negative = inhibition) at 1uM” value is 7.79%. With `CCN(CC)c1ccc(NC(=O)CC2Oc3ccccc3NC2=O)c(C)c1` (centres unmarked) the figure was -3.13%.

Consider `NS(=O)(=O)c1ccc(CCNC(=O)COC(=O)c2nc(Cl)ccc2Cl)cc1`, for which the “hERG current change (%, negative = inhibition) at 1uM” value was 12.4%. Regarding `Cc1ccc(S(=O)(=O)N2CCN(C(=O)C(C)Cn3nc(C)c(C)c3C)CC2)cc1C` (centres unmarked), the “hERG current change (%, negative = inhibition) at 1uM” value is -5.49%. Regarding `COc1ccc(N2CCN(C(=S)NCc3ccccc3)CC2)cc1`, the “hERG current change (%, negative = inhibition) at 1uM” value is 11.9%. On to `O=C(O)c1ccc(N/N=C/c2cn(Cc3ccccc3F)c3ccccc23)cc1`, for which the “hERG current change (%, negative = inhibition) at 1uM” value is -0.57%. Next, `O=C(COC(=O)c1ccc(Cl)c(S(=O)(=O)N2CCCC2)c1)NC1CCCC1`: 0.873%; `N#C/C(=C\c1cccc([N+](=O)[O-])c1)c1nnc2n1CCCCC2`: 4.95%. With `Cc1ccc(C)c(S(=O)(=O)N2CCN(C(=O)Cc3ccsc3)CC2)c1` the figure was 8.09%; with `O=C(C1CC(=O)N(c2ccccc2)C1)N1CCN(c2ccccc2F)CC1` (centres unmarked), 14.8%; with `COc1ccccc1C(c1nnnn1Cc1ccccc1)N1CCN(c2nc3ccccc3s2)CC1.Cl` (centres unmarked), 16.6%. Next, `O=C1/C(=C\c2cccs2)Sc2ccc3ccccc3c21`: 12.2%.

Take `Cn1c(SCC(=O)NNC(=O)Nc2ccccc2)nnc1-c1ccccc1`: the “hERG current change (%, negative = inhibition) at 1uM” value was 8.01%. Next, `COc1ccc(/C=C2\SC(=S)N(CCCC(=O)N3CCOCC3)C2=O)cc1`: -3.35%; `CSCCC(NC(=O)c1ccccc1)C(=O)NCCc1ccc2c(c1)OCCO2` (centres unmarked): -9.01%; `NS(=O)(=O)c1ccc(NC(=O)COC(=O)CCNC(=O)NC23CC4CC(CC(C4)C2)C3)cc1`: 2.89%. With `COc1ccc(S(=O)(=O)N2CCC(C(=O)N[C@@H](C)C(=O)NCc3cccc(OC)c3)CC2)cc1` the figure was 24.8%; with `Fc1ccccc1CSc1nnnn1-c1ccc2c(c1)OCO2`, -12.5%; with `Nc1ccccc1Nc1cc(-c2ccccc2)nn1-c1ccccc1`, 1.08%. Regarding `O=C(Nc1ccccc1C(=O)Nc1ccc2c(c1)OCO2)c1ccco1`, the “hERG current change (%, negative = inhibition) at 1uM” value was 5.66%.

Turning to `CSc1ccc(Cl)c(C(=O)NCCCn2ccnc2)c1`, the “hERG current change (%, negative = inhibition) at 1uM” value is on record as 9.71%. Consider `Cc1cccc(-n2c(N)cc(=O)[nH]c2=S)c1`, for which the “hERG current change (%, negative = inhibition) at 1uM” value came out at 0.389%. Consider `COc1ccc(OC)c(N2CC(O)(c3cccs3)[N+]3=C2SCCC3)c1.[Br-]` (centres unmarked), for which the “hERG current change (%, negative = inhibition) at 1uM” value is recorded as -3%. With `Cc1csc(NC(=O)C2COc3ccccc3O2)n1` (centres unmarked) the figure was -13.5%. `Cc1coc2c1c(C)cc1oc(=O)c(CC(=O)N[C@@H](CC(C)C)C(=O)O)c(C)c12`: the “hERG current change (%, negative = inhibition) at 1uM” value is on record as -1.7%. Next, `O=C(c1nc2ccc(Cl)cn2c1CN1CCC(CO)CC1)N1CCc2ccccc2C1`: -0.374%; `Cc1cnc(C(=O)Nc2ccc(S(=O)(=O)N(C(C)C)C(C)C)cc2)cn1`: 12.5%. In the case of `COc1ccc(C2=C3C(=O)OCC3Cc3ncn(Cc4ccccc4)c32)cc1` (centres unmarked), the “hERG current change (%, negative = inhibition) at 1uM” value turned out to be 8.39%.

`O=C(NNC(=O)c1ccc(Cl)cc1Cl)c1csc(-c2cccnc2)n1`: the “hERG current change (%, negative = inhibition) at 1uM” value came out at 1.02%.

As for `CC1CCN(S(=O)(=O)c2cc([N+](=O)[O-])ccc2Cl)CC1`, the “hERG current change (%, negative = inhibition) at 1uM” value is on record as 6.55%. Turning to `COc1ccccc1NC(=O)c1nnn(CC(=O)Nc2cc(C)cc(C)c2)c1N`, the “hERG current change (%, negative = inhibition) at 1uM” value worked out at 16.2%.
